Experimental data as given in US5580552A, “7-glycosyloxybenzopyran derivative and antiallergic agent containing the derivative as active ingredient” (priority 1994, dated 1996).
The name of at least one read-out is uncertain.

Tested on: homologous passive cutaneous anaphylaxis (PCA) reaction
Experiment: Effect on homologous passive cutaneous anaphylaxis (PCA) reaction in rats
Assay type: in vivo, rats (male wistar)
Settings: Comparative Test Example 1 (TABLE 4), method of Test Example 2
Description: Effect on homologous passive cutaneous anaphylaxis (PCA) reaction in rats.
This experimental animal model is caused by immediate type allergic reaction namely, antigen-antibody reaction. In the following, the method of this pharmacological test will be explained.
Method: Male wistar rats (9 weeks old) were intradermally administered 0.05 ml of anti-serum against dinitrophenylated ascaris (DNP-As) into two sites on the shaved dorsal skin. 48 hours later, 7-glycosyloxybenzopyran derivatives (test compounds) suspended in 0.5% sodium carboxymethylcellulose (CMCNa) were given orally at a dose of 50 mg/kg to the animals. One hour after administration of Test compounds, the animals were induced anaphylaxis by injection of saline (1 ml) dissolving 5 mg of Evans Blue and 1 mg of Trinitrophenylated ascaris (TNP-As) into the tail vein of the animals. 30 minutes after induction of anaphylaxis, animals were anesthetized by ether and killed by bleeding, and were flayed dorsal skin. The determination of extravasated dye was performed according to the method of Katayama et al. (Microbiol. Immunol., Vol.22, P 89-101, 1978). As vehicle control group, only 0.5% CMCNa solution was administered orally, and as positive control group, Tranilast suspended in 0.5% CMCNa was administered orally at a dose of 100 mg/kg to the animals with the same method as the test compounds groups. Each experimental group consisted of 5 rats. [formula]

Compound | Inhibition (%) of PCA reaction [%]
CCCCOc1c(O)c2ccc(OC)cc2oc1=O [Compared compound 2, 3-butoxy-4-hydroxy-7-methoxy-2H-1-benzopyran-2-one, reference compound] | 32.4
CCCCOc1c(O)c2ccc(O[C@@H]3O[C@H](CO)[C@@H](O)[C@H](O)[C@H]3O)cc2oc1=O [compound 37] | 55.1
CCCCOc1c(O)c(=O)oc2cc(O[C@@H]3O[C@H](CO)[C@H](O)[C@H](O)[C@H]3O)ccc12 [compound 18, 3-hydroxy-4-butoxy-7-(β-D-galactopyranosyloxy)-2H-1-benzopyran-2-one] | 42.5
COc1ccc2c(O)c(OC)c(=O)oc2c1 [Compared compound 1, 4-hydroxy-3,7-dimethoxy-2H-1-benzopyran-2-one, reference compound] | 28.1
CCCCOc1c(O)c(=O)oc2cc(OC)ccc12 [Compared compound 4, 3-hydroxy-4-butoxy-7-methoxy-2H-1-benzopyran 2-one, reference compound] | 26.2
COc1ccc2c(OC)c(O)c(=O)oc2c1 [Compared compound 3, 3-hydroxy-4,7-dimethoxy-2H-1-benzopyran-2-one, reference compound] | 31.5
COc1c(O)c(=O)oc2cc(O[C@@H]3O[C@H](CO)[C@@H](O)[C@H](O)[C@H]3O)ccc12 [compound 153] | 42.4
CCCCOc1c(O)c(=O)oc2cc(O[C@@H]3O[C@H](CO)[C@@H](O)[C@H](O)[C@H]3O)ccc12 [compound 110] | 41.4
COc1c(O)c2ccc(O[C@@H]3O[C@H](CO)[C@@H](O)[C@H](O)[C@H]3O)cc2oc1=O [compound 3, 3-methoxy-4-hydroxy-7-(β-D-glucopyranosyloxy)-2H-1-benzopyran-2-one] | 53.1
COc1c(O)c2ccc(O[C@@H]3O[C@H](CO)[C@H](O)[C@H](O)[C@H]3O)cc2oc1=O [compound 9, 3-methoxy-4-hydroxy-7-(β-D-galactopyranosyloxy)-2H-1-benzopyran-2-one] | 54.5
COc1c(O)c(=O)oc2cc(O[C@@H]3O[C@H](CO)[C@@H](O)[C@H](O)[C@H]3O)ccc12 [compound 109] | 42.1
CCCCOc1c(O)c2ccc(O[C@@H]3O[C@H](CO)[C@H](O)[C@H](O)[C@H]3O)cc2oc1=O [compound 86] | 56.4
